# This is one part of the list.
# B1: mCC1-Hexahis-Precomplexed (Mus musculus), P31809 (protein)
# chain: MELASAHLHKGQVPWGGLLLTASLLASWSPATTAEVTIEAVPPQVAEDNNVLLLVHNLPLALGAFAWYKGNTTAIDKEIARFVPNSNMNFTGQAYSGREIIYSNGSLLFQMITMKDMGVYTLDMTDENYRRTQATVRFHVHPILLKPNITSNNSNPVEGDDSVSLTCDSYTDPDNINYLWSRNGESLSEGDRLKLSEGNRTLTLLNVTRNDTGPYVCETRNPVSVNRSDPFSLNIIYGPDTPIISPSDIYLHPGSNLNLSCHAASNPPAQYFWLINEKPHASSQELFIPNITTNNSGTYTCFVNNSVTGLSRTTVKNITVLEPVTQPFLQVTNTTVKELDSVTLTCLSNDIGANIQWLFNSQSLQLTERMTLSQNNSILRIDPIKREDAGEYQCEISNPVSVRRSNSIKLDIIFDPTQGGLSDGHHHHHH
# Experiments:
# Experiment in all cases: glycan array binding signal (z-score within array); higher = stronger binding
# Conditions in all cases: glycan notation: IUPAC condensed, linker removed
# GlcNAc(b1-3)Man = molecular target: GlcNAc(b1-3)Man
# In short: (§1)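 Glycan array data came from 3228 arrays in the Consortium for Functional Glycomics database, and only arrays with an available protein sequence were kept. Glycan names were put into IUPAC-condensed notation, and columns mapping to the same glycan were averaged. The binding signal is a within-array Z-score, averaged across arrays of one protein sequence run at different concentrations or buffers and across linkers. A negative Z-score can be read as non-binding.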
# [1] = molecular target: GlcNAc(b1-3)[GlcNAc(b1-4)][GlcNAc(b1-6)]GlcNAc
# In short: as §1
# [2] = molecular target: GlcNAc(b1-3)[GlcNAc(b1-6)]Gal(b1-4)GlcNAc
# In short: as §1
# [3] = molecular target: GlcNAc(b1-3)[GlcNAc(b1-6)]GalNAc
# In short: as §1
# [4] = molecular target: GlcNAc(b1-4)Gal(b1-4)GlcNAc
# In short: as §1
# GlcNAc(b1-4)GlcNAc = molecular target: GlcNAc(b1-4)GlcNAc
# In short: as §1
# [5] = molecular target: GlcNAc(b1-4)GlcNAc(b1-4)GlcNAc
# In short: as §1
# [6] = molecular target: GlcNAc(b1-4)GlcNAc(b1-4)GlcNAc(b1-4)GlcNAc(b1-4)GlcNAc
# In short: as §1
# [7] = molecular target: GlcNAc(b1-4)GlcNAc(b1-4)GlcNAc(b1-4)GlcNAc(b1-4)GlcNAc(b1-4)GlcNAc
# In short: as §1
# [8] = molecular target: GlcNAc(b1-4)[GlcNAc(b1-6)]GalNAc
# In short: as §1
# [9] = molecular target: GlcNAc(b1-6)Gal(b1-4)GlcNAc
# In short: as §1
# GlcNAc(b1-6)GalNAc = molecular target: GlcNAc(b1-6)GalNAc
# In short: as §1
# [10] = molecular target: GlcNAc6S(b1-3)Gal(b1-4)GlcNAc
# In short: as §1
# Kdn(a2-3)Gal(b1-3)GalNAc = molecular target: Kdn(a2-3)Gal(b1-3)GalNAc
# In short: as §1
# Kdn(a2-3)Gal(b1-3)GlcNAc = molecular target: Kdn(a2-3)Gal(b1-3)GlcNAc
# In short: as §1
# Kdn(a2-3)Gal(b1-4)Glc = molecular target: Kdn(a2-3)Gal(b1-4)Glc
# In short: as §1
# Kdn(a2-3)Gal(b1-4)GlcNAc = molecular target: Kdn(a2-3)Gal(b1-4)GlcNAc
# In short: as §1
# [11] = molecular target: Kdn(a2-3)Gal(b1-4)[Fuc(a1-3)]GlcNAc
# In short: as §1
# Kdn(a2-6)Gal(b1-4)GlcNAc = molecular target: Kdn(a2-6)Gal(b1-4)GlcNAc
# In short: as §1
# [12] = molecular target: Man(a1-2)Man(a1-2)Man(a1-3)Man
# In short: as §1
# [13] = molecular target: Man(a1-2)Man(a1-2)Man(a1-6)[Man(a1-3)]Man
# In short: as §1
# Man(a1-2)Man(a1-3)Man = molecular target: Man(a1-2)Man(a1-3)Man
# In short: as §1
# [14] = molecular target: Man(a1-2)Man(a1-3)[Man(a1-2)Man(a1-6)]Man
# In short: as §1
# [15] = molecular target: Man(a1-2)Man(a1-3)[Man(a1-2)Man(a1-6)]Man(a1-6)[Man(a1-2)Man(a1-2)Man(a1-3)]Man
# In short: as §1
# [16] = molecular target: Man(a1-2)Man(a1-3)[Man(a1-2)Man(a1-6)]Man(a1-6)[Man(a1-2)Man(a1-2)Man(a1-3)]Man(b1-4)GlcNAc(b1-4)GlcNAc
# In short: as §1
# [17] = molecular target: Man(a1-2)Man(a1-3)[Man(a1-6)]Man(a1-6)[Man(a1-2)Man(a1-3)]Man(b1-4)GlcNAc(b1-4)GlcNAc
# In short: as §1
# [18] = molecular target: Man(a1-2)Man(a1-6)[Man(a1-3)]Man(a1-6)[Man(a1-2)Man(a1-2)Man(a1-3)]Man
# In short: as §1
# [19] = molecular target: Man(a1-2)Man(a1-6)[Man(a1-3)]Man(a1-6)[Man(a1-2)Man(a1-2)Man(a1-3)]Man(b1-4)GlcNAc(b1-4)GlcNAc
# In short: as §1
# Man(a1-3)[Man(a1-6)]Man = molecular target: Man(a1-3)[Man(a1-6)]Man
# In short: as §1
# [20] = molecular target: Man(a1-3)[Man(a1-6)]Man(a1-6)[Man(a1-2)Man(a1-3)]Man(b1-4)GlcNAc(b1-4)GlcNAc
# In short: as §1
# [21] = molecular target: Man(a1-3)[Man(a1-6)]Man(a1-6)[Man(a1-3)]Man
# In short: as §1
# [22] = molecular target: Man(a1-3)[Man(a1-6)]Man(a1-6)[Man(a1-3)]Man(b1-4)GlcNAc(b1-4)GlcNAc
# In short: as §1
# [23] = molecular target: Man(a1-3)[Man(a1-6)]Man(b1-4)GlcNAc(b1-4)GlcNAc
# In short: as §1
# [24] = molecular target: Man(a1-3)[Man(a1-6)]Man(b1-4)GlcNAc(b1-4)[Fuc(a1-6)]GlcNAc
# In short: as §1
# Man(a1-6)Man = molecular target: Man(a1-6)Man
# In short: as §1
# Man(b1-4)GlcNAc = molecular target: Man(b1-4)GlcNAc
# In short: as §1
# MurNAc(b1-4)GlcNAc = molecular target: MurNAc(b1-4)GlcNAc
# In short: as §1
# Neu5Ac(a2-3)Gal = molecular target: Neu5Ac(a2-3)Gal
# In short: as §1
binder,measurement,setting,value
B1,glycan array binding signal (z-score),GlcNAc(b1-3)Man,-0.224
same,glycan array binding signal (z-score),[1],-0.3
same,glycan array binding signal (z-score),[2],-0.244
same,glycan array binding signal (z-score),[3],-0.144
same,glycan array binding signal (z-score),[4],-0.297
same,glycan array binding signal (z-score),GlcNAc(b1-4)GlcNAc,-0.215
same,glycan array binding signal (z-score),[5],-0.277
same,glycan array binding signal (z-score),[6],-0.234
same,glycan array binding signal (z-score),[7],-0.151
same,glycan array binding signal (z-score),[8],-0.246
same,glycan array binding signal (z-score),[9],-0.259
same,glycan array binding signal (z-score),GlcNAc(b1-6)GalNAc,-0.156
same,glycan array binding signal (z-score),[10],-0.239
same,glycan array binding signal (z-score),Kdn(a2-3)Gal(b1-3)GalNAc,-0.099
same,glycan array binding signal (z-score),Kdn(a2-3)Gal(b1-3)GlcNAc,-0.208
same,glycan array binding signal (z-score),Kdn(a2-3)Gal(b1-4)Glc,-0.18
same,glycan array binding signal (z-score),Kdn(a2-3)Gal(b1-4)GlcNAc,-0.232
same,glycan array binding signal (z-score),[11],-0.169
same,glycan array binding signal (z-score),Kdn(a2-6)Gal(b1-4)GlcNAc,-0.171
same,glycan array binding signal (z-score),[12],-0.262
same,glycan array binding signal (z-score),[13],-0.053
same,glycan array binding signal (z-score),Man(a1-2)Man(a1-3)Man,-0.152
same,glycan array binding signal (z-score),[14],-0.193
same,glycan array binding signal (z-score),[15],-0.115
same,glycan array binding signal (z-score),[16],1.13
same,glycan array binding signal (z-score),[17],-0.127
same,glycan array binding signal (z-score),[18],-0.146
same,glycan array binding signal (z-score),[19],-0.31
same,glycan array binding signal (z-score),Man(a1-3)[Man(a1-6)]Man,-0.219
same,glycan array binding signal (z-score),[20],4.18
same,glycan array binding signal (z-score),[21],-0.025
same,glycan array binding signal (z-score),[22],-0.197
same,glycan array binding signal (z-score),[23],0.283
same,glycan array binding signal (z-score),[24],0.151
same,glycan array binding signal (z-score),Man(a1-6)Man,-0.125
same,glycan array binding signal (z-score),Man(b1-4)GlcNAc,-0.218
same,glycan array binding signal (z-score),MurNAc(b1-4)GlcNAc,-0.257
same,glycan array binding signal (z-score),Neu5Ac(a2-3)Gal,-0.243

# — the supplement of paper PMC8728848
